Test results published in PubChem BioAssay AID1159614 (National Center for Advancing Translational Sciences (NCATS), 2016).
In all, about 45,000 compounds went through this assay and about 65 (0.1%) were called active. The call rests on the fitted dose curve; in most records, active means well fitted activation curve with a large enough effect; inconclusive means small, poorly fitted or top-dose-only effect; inactive means no such curve, though single readings can be large or run the other way. The list shows a part of the results.

What follows are compounds tested against Galactocerebrosidase (Homo sapiens) (UniProt P54803) (assay: A Novel Cell-Based Assay to Identify Small Molecules for B -Galactocerebrosidase). Details: 145M-Twi-hGALC-G270D cells (Twitcher mouse brain line with human GALC G270D), HMU-beta-Gal fluorescence, 48 h; series mostly up to 57.5 µM; activation: at the top concentration.
Method in brief: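 Fluorogenic HMU-b-Gal hydrolysis (0.1 mM final, pH 5.2 citrate-phosphate with 1 mg/mL sodium taurocholate; carbonate stop buffer) measures mutant GALC activity after compound treatment of live 145M-Twi Twitcher brain cells stably carrying human GALC-G270D, with wild-type GALC line alongside; activation sought.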
Further: 0% is about no effect; nearly all actives have a fitted effect of over 65% in size.

UniProt P54803, sequence (P54803 whole entry, looked up): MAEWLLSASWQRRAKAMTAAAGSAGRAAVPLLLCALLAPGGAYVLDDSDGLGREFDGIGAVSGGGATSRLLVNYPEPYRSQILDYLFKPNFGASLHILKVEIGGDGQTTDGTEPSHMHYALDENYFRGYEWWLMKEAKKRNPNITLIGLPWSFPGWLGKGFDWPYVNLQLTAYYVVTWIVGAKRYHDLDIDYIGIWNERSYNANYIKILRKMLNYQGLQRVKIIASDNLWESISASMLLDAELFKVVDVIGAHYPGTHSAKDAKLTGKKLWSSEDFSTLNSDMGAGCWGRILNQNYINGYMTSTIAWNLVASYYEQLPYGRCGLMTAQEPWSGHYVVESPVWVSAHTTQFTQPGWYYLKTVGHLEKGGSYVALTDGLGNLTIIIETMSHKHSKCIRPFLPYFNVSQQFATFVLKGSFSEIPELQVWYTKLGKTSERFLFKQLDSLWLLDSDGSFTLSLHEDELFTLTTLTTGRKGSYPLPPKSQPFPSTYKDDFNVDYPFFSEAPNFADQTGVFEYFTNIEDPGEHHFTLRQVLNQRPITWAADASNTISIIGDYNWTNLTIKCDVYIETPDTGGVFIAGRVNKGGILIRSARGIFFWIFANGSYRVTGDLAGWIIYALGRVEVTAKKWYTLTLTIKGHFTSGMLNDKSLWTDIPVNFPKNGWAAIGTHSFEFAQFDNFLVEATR

Row | Structure (SMILES) | activation
1 | CCOc1ccccc1CNC(=O)CN1C(=O)CCn2nc(-c3cn(C)c4ccccc34)cc21 | inactive: -30.1%
2 | COc1ccc(CNC(=O)c2ccc3c(c2)NC(=O)C(CS(=O)(=O)Cc2ccccc2Cl)N3)cc1 (stereo unspecified) | inactive: -17%
3 | Cc1nc2ccc(S(=O)(=O)N(CC(=O)Nc3ccc(Cl)cc3)Cc3ccccc3)cc2s1 | inactive: -11.7%
4 | COc1cc(Cl)c(C)cc1Nc1c2c(nc3ccccc13)CCC2 | inactive: -16.3%
5 | CCOc1ccc(C(=O)c2oc3ccccc3c2NC(=O)c2cc(-c3ccccc3)on2)cc1 | inactive: -13.8%
6 | Cc1ccc(NC(=O)C(Cc2ccccc2)n2cccc2)c(C)c1 (stereo unspecified) | inactive: -20.3%
7 | CSc1cccc(N2C(=O)N(CC(=O)NCc3ccccc3Cl)c3ccccc3S2(=O)=O)c1 | inactive: 0.28%
8 | CCOc1ccccc1N(C)C(=O)Cn1cnc2onc(-c3ccc(F)cc3)c2c1=O | inactive: -26.5%
9 | COc1ccccc1-n1ncc2c(=O)[nH]c(SCC(=O)Nc3cccc(F)c3)nc21 | inactive: -10.6%
10 | COc1ccc2c(CNCc3cccs3)c(C(=O)O)n(Cc3ccc(F)cc3Cl)c2c1 | inactive: -13.2%
11 | CC(C)CCOc1ccc(Oc2nc(N(C)C)nc(N(C)C)n2)nn1 | inactive: -7.16%
12 | COc1cc(-c2noc(-c3ccc(NC4CCCCC4)c([N+](=O)[O-])c3)n2)cc(OC)c1OC | inactive: -11.4%
13 | Cc1ccc(NC(=O)CSc2nc(-c3cccs3)cc(C(F)(F)F)n2)cc1C | inactive: -10.2%
14 | Cc1cc(Nc2ccc(C(C)C)cc2)nc(-n2nc(C)cc2C)n1 | inactive: -2.5%
15 | COc1ccc(NC(=O)CN(C)S(=O)(=O)c2ccc3c(c2)CCCN3C(C)=O)cc1Cl | inactive: -20.1%
16 | CCCCCn1c(=N)c(S(=O)(=O)c2ccccc2)cc2c(=O)n3cccc(C)c3nc21 | inactive: -12.4%
17 | Cc1nnc(SCc2ccccc2Cl)c2cc3occc3n12 | inactive: -3.63%
18 | Cc1cccc2sc(N(Cc3cccnc3)C(=O)Cc3ccccc3)nc12 | inactive: -48.3%
19 | CC(C)Oc1cccc(C(=O)Nc2ccc(-c3nc4cc(Cl)cc(Cl)c4o3)cc2)c1 | inactive: -7.22%
20 | COc1ccc(NC(=O)Cn2c(=O)n(CC3CCCO3)c(=O)c3ccccc32)cc1 (stereo unspecified) | inactive: -1.33%
21 | CCCCCCNc1ncnc2c1sc1nc(N3CCOCC3)c3c(c12)CCCC3 | inactive: -21%

Row | Structure (SMILES) | activation
22 | CCCCSCCCNC(=O)c1cc(-c2cccnc2)nc2ccc(S(=O)(=O)N3CCC(C)CC3)cc12 | inactive: 6.3%
23 | CCOC(=O)c1c(NC(=O)c2ccc(S(=O)(=O)N(C)C)cc2)sc2c1CCN(C)C2 | inactive: -6.37%
24 | O=C(Nc1ccc(Oc2ccccc2)cc1)C1CCN(S(=O)(=O)c2ccccc2)CC1 | inactive: -17.8%
25 | O=C(Nc1cccc(C(=O)N2CCN(c3ccc(F)cc3)CC2)c1)c1nsc2ccccc12 | inactive: -21.3%
26 | CCCN(C(=O)c1nn(-c2ccc(C)cc2)c(=O)c2c1c1ccccc1n2C)c1ccccc1C | inactive: -6.4%
27 | Cc1oc2ccc(O)c(CN3CCN(Cc4ccccc4)CC3)c2c1C(=O)Nc1cccc(Cl)c1C | inactive: -5.74%
28 | CC(=O)c1cc(-c2ccc(F)cc2)n(CCC(=O)NCc2ccc(C)cc2)c1C | inactive: -9.99%
29 | Cc1c(Cl)cccc1NC(=O)CN1C(=O)CSc2ccc(S(=O)(=O)N3CCCC3)cc21 | inactive: -3.84%
30 | COc1ccccc1/C=C/c1nc(C#N)c(NC(C)c2ccccc2)o1 (stereo unspecified) | inactive: -13.4%
31 | CC(=O)c1ccc(N2CCN(C(=O)Cn3ncc4c3-c3ccccc3OC4)CC2)cc1 | inactive: -39.4%
32 | CCOc1ccc(NC(=O)c2cnn3c(C(F)F)cc(-c4ccc(C)cc4)nc23)cc1 | inactive: -11.5%
33 | O=c1cc(COc2cccc(C(F)(F)F)c2)nc2sc3c(n12)CCCC3 | inactive: -6.75%
34 | Cc1ccc(-n2ncc(C(=O)N3CCN(C4CCCCC4)CC3)c2C2CCN(C(=O)OC(C)(C)C)CC2)cc1 | inactive: -16.2%
35 | CC(C)(C)C(=O)OCOC(=O)C1N2C(=O)CC2S(=O)(=O)C1(C)C (stereo unspecified) | inactive: -8.46%
36 | CCc1ccc(Sc2cc(C(=O)NCCCN3CCCC(C)C3)c3ccccc3n2)cc1 (stereo unspecified) | inactive: -7.05%
37 | Cc1ccccc1CCNCc1c(C(=O)O)c(C)n(Cc2c(F)cccc2Cl)c1C | inactive: -11.5%
38 | Cc1ccc(NC(=O)CN2CCN(C3CCCCC3)C(=O)C2=O)cc1 | inactive: -8.48%
39 | CC(=O)Nc1ccc2nc(SCc3ccccc3)sc2c1 | inactive: -18.4%
40 | CCOc1ccccc1CN(CCc1ccc2c(c1)OCO2)Cc1cc(OC)c(OC)cc1OC | inactive: -19.2%
41 | Clc1ccc(CN2CCc3nc(Nc4ccc5c(c4)OCCO5)ncc3C2)cc1 | inactive: -18.4%
42 | COc1ccccc1CNc1nc(-c2ccco2)nn1S(=O)(=O)c1ccc(C)cc1 | inactive: -0.206%

Row | Structure (SMILES) | activation
43 | COC(=O)c1cc(Cl)ccc1NC(=O)Cn1c(C)cc(C)c(C#N)c1=O | inactive: -1.21%
44 | CC(C)NC(=O)c1nn(C)c2c1CS(=O)(=O)c1ccccc1-2 | inactive: -14.3%
45 | COc1ccc(CNC(=O)C(=O)NCC(c2cccs2)S(=O)(=O)c2ccc(C)cc2)cc1 (stereo unspecified) | inactive: -6.11%
46 | O=C(c1ccc(F)cc1)N1c2ncnn2C2(CCCCC2)[C@@H]2CCCC[C@@H]21 | inactive: -8.88%
47 | Cc1ccc(-c2nsc(NC(=O)c3oc4cc(C)c(Cl)cc4c3C)n2)cc1 | inactive: -14.5%
48 | CCn1c(SCC(=O)Nc2cccc(Cl)c2)nnc1-c1nonc1NC(C)=O | inactive: -10.9%
49 | CCn1c(=O)c2sccc2n2c(CCCC(=O)N3CCN(c4ccccc4OC)CC3)nnc12 | inactive: -9.26%
50 | Cc1ccccc1C(=O)NCc1ccc2c(c1)CCN2C(=O)c1ccccc1 | inactive: -19.6%
51 | CCCCCCOc1ccccc1C(N)=O | inactive: -14.1%
52 | CCOC(=O)N1CCC(NC(=O)c2cnn(-c3cccc(C)c3)c2C2CCN(C(=O)OC(C)(C)C)CC2)CC1 | inactive: -11.2%
53 | Cc1ccc(-n2nc(CO)c(C(=O)NCCO)n2)cc1 | inactive: -1.66%
54 | COc1ccc(CCNC(=O)Cn2nnc(-c3cccc(C(F)(F)F)c3)n2)cc1OC | inactive: -13.7%
55 | CC(CNC(=O)c1ccc(Cn2c(SCc3ccccc3)nc3cccnc32)cc1)c1ccccc1 (stereo unspecified) | inactive: -47.4%
56 | Cc1cccc(NS(=O)(=O)c2nnc(NC(=O)C3CCCCC3)s2)c1 | inactive: -20.8%
57 | CCOC(=O)c1ccc(NC(=O)c2ccc3c(c2)CCN3S(=O)(=O)c2ccc(Cl)cc2)cc1 | inactive: -9.15%
58 | COc1ccc(CNC(=O)c2cc(Nc3ccc(OC)cc3OC)nc3ccccc23)cc1 | inactive: -11.7%
59 | COc1cc2[nH]c(=O)n(Cc3ccc(C(=O)N4CCN(c5cccc(C)c5C)CC4)cc3)c(=O)c2cc1OC | inactive: -10.8%
60 | CCOC(=O)c1ccc(N2C(=O)c3n[nH]c(C)c3C2c2ccc(C(C)C)cc2)cc1 (stereo unspecified) | inactive: -11.6%
61 | O=C(CSc1n[nH]c(-c2ccccc2Cl)n1)N1CCN(c2ccc(F)cc2)CC1 | inactive: -13.6%
